Assay results as given in the RNAGym collection of RNA variant scans (doi:10.1093/nar/gkz1192).
The source gives no read counts; variants with many changes may rest on few reads.

B1: CPEB3 Ribozyme (parent)
chain: UAACAGGGGGCCACAGCAGAAGCGUUCACGUCGCAGCCCCUGUCAGAUUCUGGUGAAUCUGCGAAUUCUGCUGUAUAUCUC

Variants of: B1
Assay: self-cleavage, relative activity (ratio to wild type); higher = more cleavage; in vitro, sequencing
Summary of the method: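 Relative activity compares each variant's cleaved/total read fraction with that of the unmutated ribozyme. To get these fractions, barcoded CPEB3 ribozyme libraries from rounds of error-prone PCR were transcribed with T7 RNA polymerase for 5 hours at 37°C and then given 15 min of DNase I treatment before EDTA was added. The RNAs were reverse transcribed with template switching and sequenced on Illumina, and DNA sequencing linked barcodes to variants. A minimum of 5 reads applied, and three batches were averaged.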

Variant | self-cleavage
A15G A35U G52U U67C | 0.13
A15G C17G U26C C29A C32U U69A | 0.22
A15G C62U U66C U76C | 0.3
A15C A21G A35G U51C U69C | 0.33
A13U U51C U60C | 0.38
A15G A35C U43A U48C U54C | 0.22
A15G A35U A77C | 0.44
C14U U58A U74C | 1.04
A15G C38U U43C U67A | 0.12
A15C U48C G61A | 0.14
C14A A15G A20G U49C A64G A77U | 0.19
A15G A18G A57G | 0.35
A15G A28G U49C | 0.13
A15G A57G U72A | 0.47
A13U U69C U72C | 0.2
C14A A65G U74C | 0.95
A15C A21G C23G U26C | 0.11
A15G C17U U60A U72C | 0.68
C14U A20G A28U | 0.54
A15C A47U U72C | 0.78
C14A C32U A35U | 0.18
A15G C29G A35U C39A A45G A77U | 0.04
A13U U48C U51C G61C | 0.16
A13U U48C U49C U67A U69C | 0.17

Variant | self-cleavage
A15C A20U C29U C32U U49A | 0.07
A15C A18G A35G U48C G63A | 0.26
A15G A45U A57G U74C | 0.29
A15C U69G U72C | 0.32
C14A A18U U43C U49A | 0.23
A15G A21G U41A A57G A77G | 0.07
A15G A21G U60A | 0.22
A15G A75G A77G | 0.33
A15G C40A A47U A56G A75G | 0.05
A15G A56G U60A U69C G73U | 0.31
A15C G33A A56G U78C | 0.06
C14U A20C C32A A47U U54A U69A | 0.05
A15G C50A A77G | 0.99
C14A A21G C37A U80C | 0.33
A15C A18G U41C | 0.67
A15G A28G U41C U58C A64U U67C | 0.06
A15G C29U C71U | 0.1
A13U U43C U72C U80G | 0.49
C14U A20U U54A | 0.15
A15G A20G A45G A65G | 0.18
A13U U41C A45G U78C | 1.19
A15G A21U U54A | 0.14
A15G A28G G33A | 0.1
A15G A18U G24A C40U G42C A56U A77G | 0.06

Variant | self-cleavage
C14G A21U A64U C68A | 0.15
A15C C32U A45U | 0.14
A15G A28G U31A A45U A56U U66C U78C | 0.01
A15G A18C U25C U72C G73C | 0.23
A15G A35U U67C U74C | 0.1
A13U U31C A56G G63C U78C | 0.94
A13U U43A U80C | 1.28
A15G A18G U60C U69A | 0.06
A13U U51C A57G | 1.16
C14U G30A U41A | 0.08
A15G A45U U74A | 0.52
A15G A18U A56U G61A C62U | 0.22
A13U U43C U48C A56U U58C U69A U74C | 0.06
A13U U41C U51A | 0.95
C14U G46U U74C | 0.46
C14U G42C U48C A57G | 0.18
A13U U54A U60C | 0.66
A15C A21G U67A U76C | 0.2
C14U U72C A77G | 1.31
A15C U31C A56G A64U | 0.17
C14U U43C U74C U78C | 1.13
A13U U48C A56G U72C | 0.41
A15C A64C A77U | 0.15
A15G A35G U80C | 1.07

Variant | self-cleavage
A15G A28G U31C U69A U72A | 0.5
A13U U51A U60A A75U | 1.09
A13U U60C U69C | 0.35
A15G A18U A20U | 0.17
C14A U51C U58C U66C | 0.17
A15G A20G C29A | 0.14
A15G A21G G53A U54A U80A | 0.75
A15G C32G A47G | 0.15
A15G A47G U72C U74C | 0.95
A13U U41C U60C G70A U80A | 0.46
A13U U67A C79A | 0.67
C14A C23U U31G A64U | 0.15
C14G G19A U76A U80A | 0.07
A15C G16A U41A C62A | 0.19
A15C A20U A35G A47G C59U | 0.07
A15G A56G U80C | 0.88
A15G A21U C29U U31C A57G | 0.05
A15G C17A U51C | 0.2
C14A U25C U74C U80A | 0.33
A13U U54C U66C A75G | 0.38
A15G A21U U43C A64G | 0.17
C14U A15G A64C U67C | 0.25
C14A U51C U74C | 1.2
C14A A20G C50A | 0.65

Variant | self-cleavage
A15G A56U U60C | 0.22
A15G A28C U41A U43A U72C | 0.29
A15G A20G U74C | 0.69
A13U U43C U60A A64G | 0.26
A15G A56G G61U U66C | 0.16
C14U A15U U54A A64G | 1.03
A15C A64G U66C | 0.26
C14A C38U U48A U51A U54A | 0.06
A15G A35G U43G A47U U49C A57G | 0
C14A A15G A47G A56G U60C | 0.33
C14U A18G A45U A64U | 0.15
C14A A15G A64G | 1.26
C14U A35G U43C U48C U51C | 0.96
A15G A20G U49A A57G | 0.24
A15G A21G C62U | 0.17
C14A A15G A45U U72A | 0.2
A13U U48A G61C | 0.03
A13U U54C A64U U78G | 0.36
A15G C59A G73U | 0.14
C14A U54C A56U U60A | 0.15
A13U U43A U72A C81U | 1.22
A15C A18U A20U A45U A65U U72C | 0.08
C14U G33C U43A | 0.24
C14A A35G C37U A47G C59U U72C U80C | 1.3

Variant | self-cleavage
A15G A75G U76A | 0.36
A15G A18G U41G A57G | 0.24
A15G A35U U49C A56U U69C U80C | 0.13
C14U U48G U72C | 0.44
A15G C23G U25C U51C U80C | 0.42
A15G A21G U41A G52A | 0.07
A15G A64G A77G | 0.85
A15G G16A A45C | 0.26
A13U U54C A57G | 1.05
A13U U41C U54G | 0.95
A15G C29U U31C G55U G61U | 0.16
A15G C29G U31C C32G C34A | 0.29
A15G A18G A35G U54G U76A U78C | 0.02
C14A A20G G24A U80C | 0.4
A13U U69C U78C | 0.82
A13U U69A U78C | 1.03
A15G A20U A28G A56G A57G U58C U66C | 0.21
A15G A35U G55A A57G A64G | 0.1
C14G C23G U31C G53A U58C | 0.13
A15G C39A U49C U76A | 0.24
C14A U54C A64G | 0.37
A13U U43A A56U | 0.97
C14U U54C A64G A77U | 1.19
C14A U31C U51A A65G | 0.24

Variant | self-cleavage
C14A A64G U80C | 1.23
A15C U49C G73U U76C | 0.27
A13U U58A U74C U80C | 0.5
A15G G19A A35U A56G U72A U78C U80C | 0.04
A15G A20G U69C | 0.39
C14U U60A U69G | 0.35
A15G A18U A45G | 0.15
A13U U41C A45G U74C | 1.15
C14U A18U G30U U67C | 0.08
C14U U49A A57C A65G | 0.13
A13U U43C U51C A64U U76C | 0.22
A15G A47U U67C U80C | 0.15
C14A A28U A47G A56G U69C | 0.19
A15G C29A U72C | 0.46
A15G C29U U41A A57G | 0.07
C14U U51A C59G A77U | 0.4
C14U U31C U48C U49A A64U | 0.12
A15G A28U G55A | 0.28
A15G A21C U26C U49A U69A | 0.13
A15G C32A U51A | 0.33
A15G A21G C23U U60C U78C | 0.21
A15G C23A A64G | 0.11
C14U C29U C40U G70A U72G | 0.12
